The list shows a part of the results. Sequences were assembled here from the parent chain. Inactive controls read about 0.05.

B1: TEV protease; numbered along this chain (parent)
chain: MGESLFKGPRDYNPISSSICHLTNESDGHTTSLYGIGFGPFIITNKHLFRRNNGTLVVQSLHGVFKVKDTTTLQQHLVDGRDMIIIRMPKDFPPFPQKLKFREPQREERICLVTTNFQTKSMSSMVSDTSCTFPSGDGIFWKHWIQTKDGQCGSPLVSTRDGFIVGIHSASNFTNTNNYFTSVPKNFMELLTNQEAQQWVSGWRLNADSVLWGGHKVFMVKPEEPFQPVKEATQL
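Note: Bxb1 expression induced with 0.2% (w/v) L-rhamnose at OD600 near 0.5, cultures sampled hourly, flipped fraction per protease–substrate barcode pair counted by paired-end Illumina sequencing.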

Variants of B1 are the subject of the assay. In words: raw area under fraction-flipped curve 0-4 h after induction (AUC4h, not background-subtracted), DNA-recorder readout of cleavage of the substrate (dimensionless); higher = more cleavage of the substrate by the protease variant. The settings on record: temperature: 34 °C; time window: 0-4 h after rhamnose induction. As for the experimental part:
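In vivo DNA recorder in E. coli TOP10(DE3) ΔrhaA at 34 °C. Each TEVp single-site mutant (parent TEVp 0) is paired with a single-site variant of the 7-mer TEVs (canonical ENLYFQ|S). The substrate sits between flexible linkers in a Bxb1-sfGFP-TEVs-SsrA fusion, so cleavage stabilises Bxb1 and speeds flipping of a recombination array, read by NGS. The value is the raw area under the fraction-flipped curve over 0-4 h after rhamnose induction (AUC4h), with ≥20 reads per time point. It is not background-subtracted; inactive controls average about 0.047.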
With MGESLFKGPRDYNPISSSICHLTNESDGHTTSLYGIGFGPFIITNKHLFRRNNGTLVVQSLHGVFKVKDTTTLQQHLVDGRDMIIIRMPKDFPPFPQKLKFREPQREERICLVTTNFQTKSMSSMVSDTSCTFPSGDGIFWKHWIQTKDGQCGSPLVSTRDGFIVGIHSASNFTNTNNYFTSVPKNFMELLTNQEAQQWVQGWRLNADSVLWGGHKVFMVKPEEPFQPVKEATQL [S201Q], the “area with substrate ENLDFQS” value stood at 0.0566, the “area with substrate ENLFFQS” value came out at 0.0839, the “area with substrate ENLHFQS” value was found to be 0.0678 and the “area with substrate ENLQFQS” value turned out to be 0.0835. Moreover, the “area with substrate ENLSFQS” value was 0.0753.
Turning to MGESLFKGPRDYNPISSSICHLTNESDGHTTSLYGIGFGPFIITNKHLFRRNNGTLVVQSLHGVFKVKDTTTLQQHLVDGRDMIIIRMPKDFPPFPQKLKFREPQREERICLVTTNFQTKSMSSMVSDTSCTFPSGDGIFWKHWNQTKDGQCGSPLVSTRDGFIVGIHSASNFTNTNNYFTSVPKNFMELLTNQEAQQWVSGWRLNADSVLWGGHKVFMVKPEEPFQPVKEATQL [I145N], the “area with substrate ENLDFQS” value was found to be 0.0578, the “area with substrate ENLFFQS” value is 0.116, the “area with substrate ENLHFQS” value is 0.066 and the “area with substrate ENLPFQS” value worked out at 0.0392. Further, the “area with substrate ENLTFQS” value was determined as 0.0579 and the “area with substrate ENLWFQS” value stood at 0.0595.
As for MGESLFKGPRDYNPISSSICHLTNESDGHTTSLYGIGFGPFIITNKHLFRRNNGTLVVQSLHGVFKVKDTTTLQQHLVDGRDMIIIRMPKDFPPFPQKLKEREPQREERICLVTTNFQTKSMSSMVSDTSCTFPSGDGIFWKHWIQTKDGQCGSPLVSTRDGFIVGIHSASNFTNTNNYFTSVPKNFMELLTNQEAQQWVSGWRLNADSVLWGGHKVFMVKPEEPFQPVKEATQL [F101E], the “area with substrate ENLDFQS” value stood at 0.0576, the “area with substrate ENLEFQS” value was determined as 0.0753, the “area with substrate ENLFFQS” value is 0.0413 and the “area with substrate ENLKFQS” value came out at 0.0626. Further, the “area with substrate ENLNFQS” value was determined as 0.0505, the “area with substrate ENLPFQS” value amounted to 0.0593, the “area with substrate ENLRFQS” value was 0.035 and the “area with substrate ENLWFQS” value came to 0.0451.
Take MTESLFKGPRDYNPISSSICHLTNESDGHTTSLYGIGFGPFIITNKHLFRRNNGTLVVQSLHGVFKVKDTTTLQQHLVDGRDMIIIRMPKDFPPFPQKLKFREPQREERICLVTTNFQTKSMSSMVSDTSCTFPSGDGIFWKHWIQTKDGQCGSPLVSTRDGFIVGIHSASNFTNTNNYFTSVPKNFMELLTNQEAQQWVSGWRLNADSVLWGGHKVFMVKPEEPFQPVKEATQL [G2T]: the “area with substrate ENLDFQS” value was 0.06, the “area with substrate ENLHFQS” value came to 0.0848, the “area with substrate ENLKFQS” value was 0.0816 and the “area with substrate ENLNFQS” value was 0.0745.
As for MGESLFKGPRDYNPISSSICHLTNESDGHTTSLYGIGFGPFIITNKHLFRRNNGTLVVQSLHGVFKVKDTTTLQQHLIDGRDMIIIRMPKDFPPFPQKLKFREPQREERICLVTTNFQTKSMSSMVSDTSCTFPSGDGIFWKHWIQTKDGQCGSPLVSTRDGFIVGIHSASNFTNTNNYFTSVPKNFMELLTNQEAQQWVSGWRLNADSVLWGGHKVFMVKPEEPFQPVKEATQL [V78I], the “area with substrate ENLDFQS” value worked out at 0.0552, the “area with substrate ENLEFQS” value was determined as 0.0733, the “area with substrate ENLFFQS” value was determined as 0.0784 and the “area with substrate ENLHFQS” value was 0.0671. The “area with substrate ENLIFQS” value worked out at 0.0686, the “area with substrate ENLKFQS” value stood at 0.0898, the “area with substrate ENLLFQS” value was determined as 0.0723 and the “area with substrate ENLMFQS” value turned out to be 0.0859. Besides, the “area with substrate ENLNFQS” value is 0.0562, the “area with substrate ENLPFQS” value was found to be 0.0551, the “area with substrate ENLRFQS” value was 0.0566 and the “area with substrate ENLSFQS” value was found to be 0.0647. Besides, the “area with substrate ENLWFQS” value is 0.0704.
As for MGESLFKGPRDYNPISSSICHLTNESDGHTTSLYGIGFGPFIITNKHLFRRNNGTLVVQSLHGVFKVKDTTTLQQHLVDGRDMIIIRMPKDFPPFPQKLKFREPQREERICLVTTNFQTKSMSSMVSDTSCTFPSGDGIFWKHWIQTKDGQCGSPLVSTRDGFIVGIHSASNFTNTNNYFTSVPANFMELLTNQEAQQWVSGWRLNADSVLWGGHKVFMVKPEEPFQPVKEATQL [K185A], the “area with substrate ENLDFQS” value amounted to 0.0628, the “area with substrate ENLHFQS” value stood at 0.0806, the “area with substrate ENLIFQS” value came out at 0.0897 and the “area with substrate ENLKFQS” value was 0.0762. Moreover, the “area with substrate ENLMFQS” value is 0.0525, the “area with substrate ENLNFQS” value was 0.0835, the “area with substrate ENLQFQS” value came out at 0.0732 and the “area with substrate ENLSFQS” value was found to be 0.0641. For the same variant, the “area with substrate ENLVFQS” value was 0.1.
Regarding MGESLFKGPRDYNPISSSICHLTNESDGHTTSLYGIGFGPFIITNKHLFRRNNGTLVVQSLHGVFKVKDTTTLQQHLVDGRDMIIIRMPKDFPPFPQKLKFREPQREERICLVTTNFQTKSMSSMVSDTSCTFPSGDGIFWKHWIQTKDGQCGSPLVSTRDGFIVGIHSASNFTQTNNYFTSVPKNFMELLTNQEAQQWVSGWRLNADSVLWGGHKVFMVKPEEPFQPVKEATQL [N175Q], the “area with substrate ENLDFQS” value is 0.0435, the “area with substrate ENLEFQS” value came to 0.0662, the “area with substrate ENLFFQS” value worked out at 0.139 and the “area with substrate ENLGFQS” value worked out at 0.0621. Besides, the “area with substrate ENLHFQS” value stood at 0.0623, the “area with substrate ENLIFQS” value is 0.0811, the “area with substrate ENLKFQS” value worked out at 0.105 and the “area with substrate ENLNFQS” value amounted to 0.0599. The “area with substrate ENLQFQS” value was found to be 0.0904, the “area with substrate ENLRFQS” value came to 0.0583 and the “area with substrate ENLSFQS” value turned out to be 0.0818.
In the case of MGESLFKGPRDYNPISSSICHLTNESDGHTTSLYGIGFGPFIITNKHLFRRNNGTLVVQSLHGVFKVKDTTTLQQHLVDGRDMIIIRMPKDFPPFPQKLKFREPQREERICLVTTNFQTKSMSSMVSDTSCTFPSGDGIFWKHWIQTKDGQCGSPLVSTRDGFIVGIHSASNFTNTNNYFTSVPKNFMELLTNQEAQQWVSIWRLNADSVLWGGHKVFMVKPEEPFQPVKEATQL [G202I], the “area with substrate ENLDFQS” value turned out to be 0.0755, the “area with substrate ENLFFQS” value came to 0.0795, the “area with substrate ENLNFQS” value was 0.0444 and the “area with substrate ENLQFQS” value came to 0.0697.
In the case of MGESLFKGPRDYNPISSSICHLTNESDGHTTSLYGIGFGPFIITNKHLFRRNNGTLVVQSLHGVFKVKDTTTLQQHLVDGRDMIIIRMPKDFPPFPQKLKFREPQREERICLVTTNFQTKSMSSMVSDTSCTFPSGDGIFWKHWIQTKDGQCGVPLVSTRDGFIVGIHSASNFTNTNNYFTSVPKNFMELLTNQEAQQWVSGWRLNADSVLWGGHKVFMVKPEEPFQPVKEATQL [S154V], the “area with substrate ENLDFQS” value worked out at 0.0587, the “area with substrate ENLFFQS” value came out at 0.0673, the “area with substrate ENLHFQS” value was 0.0636 and the “area with substrate ENLIFQS” value turned out to be 0.0664. Besides, the “area with substrate ENLNFQS” value was determined as 0.073, the “area with substrate ENLPFQS” value worked out at 0.0728 and the “area with substrate ENLWFQS” value amounted to 0.0617.
Turning to MGESLFKGPRDYNPISSSICHLTNESDGHTTSLYGIGFGPFIITNKHLFRRNNGTLVVQSLHGVFKVKDTTTLQQHLVDGRDMIIIRMPKDFPPFPQKLKFREPQREEYICLVTTNFQTKSMSSMVSDTSCTFPSGDGIFWKHWIQTKDGQCGSPLVSTRDGFIVGIHSASNFTNTNNYFTSVPKNFMELLTNQEAQQWVSGWRLNADSVLWGGHKVFMVKPEEPFQPVKEATQL [R109Y], the “area with substrate ENLDFQS” value worked out at 0.0695, the “area with substrate ENLFFQS” value came out at 0.0846, the “area with substrate ENLGFQS” value was determined as 0.066 and the “area with substrate ENLKFQS” value worked out at 0.0933. In addition, the “area with substrate ENLLFQS” value came out at 0.0698, the “area with substrate ENLNFQS” value turned out to be 0.0603, the “area with substrate ENLPFQS” value came out at 0.0533 and the “area with substrate ENLSFQS” value was found to be 0.0433. Further, the “area with substrate ENLWFQS” value worked out at 0.0949.
For MGESLFKGPRDYNPISSSICHLTNESDGHTTSLYGIGFGPFIITNKHLFRRNNGTLVVQSLHGVFKVKDTTTLQQHLVDGRDMIIIRMPKDFPPFPQKLKFREPQREERICLVTTNFQTKSMSSMVSDTSCTFPSGDGIFWKHWIQTKDGQCGSPLVSTRDGFIVGIHSASNFTNTNNYFTSVPKNFMELLTNQEAQQWVSGWRLNADYVLWGGHKVFMVKPEEPFQPVKEATQL [S209Y], the “area with substrate ENLDFQS” value was 0.0868, the “area with substrate ENLEFQS” value was determined as 0.0567, the “area with substrate ENLIFQS” value worked out at 0.105 and the “area with substrate ENLKFQS” value turned out to be 0.0984. Further, the “area with substrate ENLNFQS” value amounted to 0.0732 and the “area with substrate ENLWFQS” value was found to be 0.0871.

These data come from the supplement of paper PMC12217912.
